Source: PubChem BioAssay AID588549 (Broad Institute, 2011)
The whole screen tested about 360,000 compounds, of which about 780 (0.22%) were called active. This list was built around the results that the source calls inconclusive (neither active nor inactive); the mix of calls is not that of the screen. Cut-off read from the data, not from the text of the source: active = inhibition above about 8.5% (passing the limit was not always enough); inconclusive = no clear call, values can overlap the other calls.

Test system: Mycobacterium tuberculosis FadD28 fatty-acid-AMP ligase
Assay: inhibitors of FadD28 bisubstrate probe binding, primary screen, biochemical, fluorescence polarization, single point (AID 588549)
Details: at 12.5 µM, active compounds read high

Compound	inhibition
N#Cc1nc(-c2ccc(OCc3ccc(Cl)cc3)cc2)oc1NCCCn1ccnc1	inactive: -3.02%
CC(=O)Nc1ccc(S(=O)(=O)NC2=C(N3CCN(c4ccc(F)cc4)CC3)C(=O)c3ccccc3C2=O)cc1	inconclusive: 7.16%
CN1CCCC(C(=O)c2ccc(-c3ccccc3)cc2)C1 (stereo not drawn)	inconclusive: 4.36%
COc1ccc(C)cc1NC(=O)Cn1c(=O)oc2ccccc21	inconclusive: 73.8%
COc1ccc(S(=O)(=O)N(C)C[C@H]2Oc3ccc(NC(=O)Nc4ccc5c(c4)OCO5)cc3C(=O)N([C@H](C)CO)C[C@@H]2C)cc1	inconclusive: 8.67%
O=C(O)Cn1c(CCS(=O)(=O)c2ccc(Br)cc2)nc2ccccc21	inconclusive: 4.02%
Cc1ccc(S(=O)(=O)N(C)C)cc1NC(=O)C(C)[N+]12CCN(CC1)CC2 (stereo not drawn)	inconclusive: 5.86%
CC1CCCC(C)N1C(=C(Cl)Cl)C(=C1SCCS1)[N+](=O)[O-] (stereo not drawn)	active: 16.3%
CNC(=O)NC(=O)CSc1nnc(C(F)(F)F)n1C	inactive: -0.43%
C/C(=C\COc1ccc2ccc(=O)oc2c1)CC[C@@H](O)C(C)(C)O	inactive: -0.294%
Cn1c(N)c(S(=O)(=O)N2CCN(c3ccccc3Cl)CC2)c(=O)n(C)c1=O	inconclusive: 9.8%
O=C(Cn1cc2c(n1)CCCC2)Nc1cc(-c2cccc(Cl)c2)no1	inconclusive: 8.49%
CCOc1ccccc1NC(=O)CSc1nnc(-c2ccncc2)o1	inconclusive: 7.36%
CCN(CC)S(=O)(=O)c1cc(C(=O)OCC(=O)Nc2cccc(Br)c2)ccc1F	active: 56.1%
Fc1cccc(-c2cc3nc4c(c(N5CCC6(CC5)OCCO6)n3n2)CCCC4)c1	inactive: -2.37%
CCCCCCCCCCCCC(=O)CCCCC(=O)O	inconclusive: 7.37%
O=C(COC(=O)c1cc(S(=O)(=O)Nc2ccccc2Cl)ccc1O)Nc1nc2ccccc2s1	inconclusive: 7.84%
Cc1nnc(NC(=O)C2CC(=O)N(c3ccc4c(c3)OCCO4)C2)s1 (stereo not drawn)	inconclusive: 5.27%
COc1cccc(-n2sc3c(c2=S)-c2cc(OC)ccc2NC3(C)C)c1	inactive: 0.32%
COc1ccc(N2CCN(S(=O)(=O)c3ccc(-c4cc(C)no4)s3)CC2)cc1	inconclusive: 3.31%
COCCCN1CN(S(=O)(=O)c2ccc(Cl)cc2)c2nc3ccccc3nc21	inconclusive: 7.58%
Cc1c(Br)c(O)c(Br)c(O)c1/C=N/n1c(-c2ccccc2)n[nH]c1=S	active: 20.7%
CCN(CC)S(=O)(=O)c1cccc(C(=O)NCCCN2CCOCC2)c1	inconclusive: 3.47%
